# Measured values as given in PubChem BioAssay AID1508642 (National Center for Advancing Translational Sciences (NCATS), 2021).
# Screen size: about 43,000 compounds; about 200 (0.47%) were called active. Inconclusive results (about 12%) are left out. Calls follow the shape of the dose curve; as a rule, active = well fitted cell-killing curve with a large enough effect; inconclusive = small, poorly fitted or top-dose-only effect, or effect the other way; inactive = flat fitted curve, though single readings scatter. The list shows a part of the results.
# Assay: Cell viability qHTS assay in S16 Pmp22-F2sN cells; also: nearly all actives have a fitted effect of over 65% in size
# Details: S16 Pmp22-F2sN Schwann cells (luciferase reporters placed in the Pmp22 gene) viability, CellTiter-Glo, 24 h; series mostly up to 57.5 µM; activity change, negative = cytotoxicity: at the top concentration
# Procedure, shortened: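 CellTiter-Glo counter-screen, qHTS, 1536-well. Cells: S16(c9) Pmp22-F2sN, 500-1,000/well in DMEM + 10% FBS. Cpd 23 nL pin transfer, 24 h, 37C/5% CO2. Read: luminescence, CCD imager.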
# % is scaled to controls: 0 for no effect and ±100 for the full control effect; potency is read from the fitted curve at half-maximal effect.
Structure (SMILES),"activity change, negative = cytotoxicity",Potency
Cc1ccc(-c2nc3sc(CCNS(=O)(=O)c4cc(F)ccc4F)c(C)n3n2)cc1,inactive: -24%,
CC(=O)N(Cc1cccnc1)c1nc2c(F)cc(F)cc2s1,inactive: -0.448%,
COc1ccc(Cl)cc1NS(=O)(=O)c1ccc2[nH]c3c(c2c1)CCCC3,inactive: -12%,
Cc1ccc2c(CN3CCN(C(=O)c4ccc(F)cc4)CC3)cc(=O)oc2c1,inactive: 14.3%,
Cc1ccc(OCC(=O)N(c2ccc(C)cc2)S(=O)(=O)c2ccc(Cl)cc2)cc1,inactive: 2.91%,
Cn1c(=O)n(C)c2cc(NS(=O)(=O)c3ccc(F)cc3)ccc21,inactive: 4.3%,
COc1cccc(C(=O)Nc2ccc3nc(SCC(=O)N4CCOCC4)sc3c2)c1,inactive: 2.01%,
COc1cc2nc(NCCC(C)C)n3nc(-c4ccccc4)nc3c2cc1OC,inactive: 1.97%,
CCCCS(=O)(=O)c1oc(-c2cccs2)nc1S(=O)(=O)c1ccccc1,,active: 2510 nM
Cc1cc(C)n2c(Nc3ccc(Cl)cc3)c(-c3ccsc3)nc2n1,inactive: 9.99%,
COc1ccccc1CNC(=O)CN1C(=O)COc2ccc(S(=O)(=O)Nc3ccccc3)cc21,inactive: 0.417%,
CC(C)(C)c1ccc(C(=O)NCCc2csc3nc(-c4ccccc4F)nn23)cc1,inactive: 12.4%,
CSCCC(NS(=O)(=O)c1ccc2c(c1)oc(=O)n2C)C(=O)N1CCN(c2cc(C)ccc2C)CC1 (configuration not stated),inactive: -11%,
COc1ccc(C2CC(=O)NC(NC(=O)c3ccc(Br)cc3)=N2)c(OC)c1OC (configuration not stated),inactive: 8.79%,
CCOc1ccccc1NC(=O)CSc1nc(=O)[nH]c2c1CCCC2,inactive: -4.65%,
O=C(CS(=O)(=O)c1cccc2nsnc12)Nc1ccccc1,inactive: 16.2%,
CC(=O)N1CCOc2cc(S(=O)(=O)NCc3ccc(C)cc3)c(Cl)cc21,inactive: -1.37%,
COc1ccc(C2(Nc3cccc(C(=O)O)c3C)C(=O)c3ccccc3C2=O)cc1,inactive: 8.44%,
O=C(/C=C\c1ccc2c(c1)OCO2)NC1CC(=O)N(c2ccc(Cl)cc2)C1 (configuration not stated),inactive: 0.449%,
COc1ccc(-c2csc3nc(-c4ccccc4C)oc(=O)c23)cc1OC,inactive: 22.7%,
Cc1ccc(NC(=O)C2CCN(S(=O)(=O)c3c(C)noc3C)CC2)c(C)c1,inactive: 14.3%,

Structure (SMILES),"activity change, negative = cytotoxicity",Potency
CCOC(=O)c1c(C)oc2ncnc(N3CCN(c4ccccc4F)CC3)c12,inactive: -26.8%,
O=C(Cc1cccs1)NC1CC(=O)N(c2cccc(F)c2)C1 (configuration not stated),inactive: 7.74%,
CCOc1ccccc1NC(=O)c1cc(=O)c2ccc(C)cc2o1,inactive: 18.7%,
COc1ccc(NC(=O)CSc2oc(-c3cccs3)nc2S(=O)(=O)c2ccc(C)cc2)c(OC)c1,inactive: 7.22%,
CCSc1nc(-c2ccccc2OC)nc2c1Cc1c(CO)cnc(C)c1O2,inactive: -7.59%,
O=C(Nc1cc2c(cc1C(=O)c1ccccc1)OCCO2)c1ccc(Br)cc1,inactive: -7.91%,
CN(C)CCN(Cc1ccccc1)S(=O)(=O)c1ccc2[nH]c(=O)ccc2c1,inactive: 16.6%,
O=C(c1cccn1-c1nnc(N2CCCC2)s1)N1CCN(c2ccccc2)CC1,inactive: 0.554%,
Cc1c(C)c2c(cc(C)c3c(-c4ccccc4)coc32)oc1=O,inactive: -2.07%,
O=C(NC1CC(=O)N(c2cccc(F)c2)C1)C1CCCC1 (configuration not stated),inactive: 0.557%,
COc1cc(-c2nc(Cn3nnc(C(=O)Nc4ccccc4)c3C)c(C)o2)cc(OC)c1OC,inactive: -8.9%,
Cc1ccc(CNC(=O)c2cccn2-c2nnc(N3CCCCC3)s2)cc1,inactive: -2.35%,
COc1ccccc1-n1ncc2c(=O)[nH]c(SCC(=O)Nc3ccc(Cl)cc3)nc21,inactive: -1.67%,
COc1ccc2oc(=O)c(-c3csc(-c4ccc(Br)cc4)n3)cc2c1,inactive: 2.94%,
Cc1ccccc1-c1nc(SCC(=O)NCc2ccco2)c2c(=O)n(C)c(=O)n(C)c2n1,inactive: 0.896%,
COc1cccc(-n2c(=O)c3c4c(sc3n(Cc3ccc(C)cc3)c2=O)CCCC4)c1,inactive: 8.74%,
COc1ccc(-c2nc(CSCC(=O)N3CCN(c4cccc(C)c4C)CC3)c(C)o2)cc1OC,inactive: -29%,
CCN(CC)CCCNC(=O)CN1C(=O)CCn2nc(-c3cn(C)c4ccccc34)cc21,inactive: 18.4%,
Cc1ccc(C(=O)c2cn(CC(=O)NC3CCCCC3)c3nc(C)ccc3c2=O)cc1,inactive: 4.8%,
Cc1c(C(=O)N2CCCC2)oc2c1-c1nn(CC(=O)NCCCOC(C)C)cc1CC2,inactive: 1.2%,
COc1cccc(C(=O)Nc2ccccc2C(=O)OCc2cc(=O)n3nc(C4CC4)sc3n2)c1,inactive: -0.928%,

Structure (SMILES),"activity change, negative = cytotoxicity",Potency
Cc1nnc(NC(=O)CSCc2cc(=O)c3cc(Cl)ccc3[nH]2)s1,inactive: 7.78%,
CCCCNC(=O)c1nn(-c2ccc(CC)cc2)nc1CO,inactive: -0.195%,
Cc1cccc(NC(=O)C2CCN(S(=O)(=O)c3ccc(F)cc3)CC2)c1C,inactive: -1.12%,
COc1cccc(CN(C(=O)c2oc3cc(C)ccc3c2C)C2CCS(=O)(=O)C2)c1 (configuration not stated),inactive: 1.43%,
CCCn1c(=O)sc2cc(NC(=O)COc3ccc(Cl)cc3)ccc21,inactive: -5.62%,
CC1CCC(NC(=O)c2ccc3c(c2)N(Cc2cccc(Cl)c2)C(=O)c2ccccc2S3(=O)=O)CC1 (configuration not stated),inactive: -9.71%,
CCc1ccccc1NC(=O)Cn1nnc(C(=O)NCc2ccccc2Cl)c1N,inactive: 0.483%,
COc1cccc2c1cc1c(=O)n(CC(=O)N3CCN(c4cccc(C)c4)C(C)C3)nc(C)n12 (configuration not stated),inactive: -0.869%,
Cc1cc(C)cc(NC(=O)CSc2cc(C)[nH]c(=O)n2)c1,inactive: -5.04%,
CCCC1=Nc2cc(C(=O)NC3CCCC3)ccc2Sc2ccc(C)cc21,inactive: 1.84%,
CCOC(=O)CC(NC(=O)Cn1nnc(-c2ccc(C(F)(F)F)cc2)n1)c1ccc(OC)cc1 (configuration not stated),inactive: 6.39%,
CCOc1ccc(NC(=O)C2CC(=O)N(c3ccc(C(C)C)cc3)C2)cc1 (configuration not stated),inactive: 21%,
COc1ccc(C)cc1NC(=O)c1ccc2c(SCC(=O)O)c3c(nc2c1)CCCC3,inactive: 4.82%,
Cn1c(=O)n(-c2ccc3c(c2)OCO3)c2nc(-c3ccccc3)nc(C(N)=O)c21,inactive: 5.74%,
COc1ccc(NC(=O)c2sc3nc[nH]c(=O)c3c2C)cc1Cl,inactive: -1.25%,
COc1cc(CN(C(=O)COc2ccc(C)cc2)c2ccccn2)cc(OC)c1OC,inactive: -5.92%,
CC(=O)Nc1ccc(-c2cc(C(=O)O)c3c(-c4ccccc4)[nH]nc3n2)cc1,inactive: -12.6%,
CCc1cccc(C)c1NC(=O)Cn1c(=O)cc(C)c2c(C)nn(-c3cccc(F)c3)c21,inactive: -2.48%,
Cc1cccc(CCNC(=O)CCc2c(C)nc3c4c(C)cc(C)nc4nn3c2C)c1,inactive: -1.62%,
COc1ccc(CNC(=O)Cn2ncc3c([nH]c4ccccc43)c2=O)cc1,inactive: 1.82%,
